Read-outs that look alike come from different tables or passages of the source. Where a SMILES comes first, the peptide text is derived from it.
System: cellular ATP levels
Details: for ATP (composite Z-score): normalized score vs mock-treated (DMSO) wells
[1] = 20 μM, composite Z-score vs DMSO
[2] = normalized composite Z-score vs mock-treated (DMSO) wells, Conc 20 μM
[3] = composite Z-score vs mock-treated (DMSO) wells, Conc 20 μM
[4] = composite Z-score vs DMSO, Conc 20 μM
[5] = Table 4, C2C12 myotubes, 48 h, composite Z-score
[6] = composite Z-score vs DMSO wells, Conc 20 μM

CCCC(=O)O[C@]1(C(=O)CO)CC[C@H]2[C@@H]3CCC4=CC(=O)CC[C@]4(C)[C@H]3[C@@H](O)C[C@@]21C [hydrocortisone butyrate]
ATP [1]: −0.353

COc1ccc(-c2coc3c(OC)c(O)ccc3c2=O)cc1 [7-hydroxy-8,4′-dimethoxyisoflavone]
ATP [2]: 0.309

CC(=O)O[C@@H]1CC2C(C)(C)C=CC(=O)[C@]2(C)C2CC[C@@]3(C)[C@H](c4ccoc4)OC(=O)C4OC43[C@@]21C (stereo partly shown) [isogedunin]
ATP [3]: −0.722

CC[C@@]1(O)C[C@H](O)c2c(cc3c(c2O)C(=O)c2c(O)ccc(O)c2C3=O)[C@H]1C(=O)OC [rutilantinone]
ATP [4]: −2.936

COc1cc(OC)c2c(OC)c(-c3ccc4c(c3)OCO4)c(=O)oc2c1 [derrusnin]
ATP [2]: 0.050

CC1(C)C2CC(=O)O[C@@]3(C)C4=CC(=O)O[C@@H](c5ccoc5)[C@]4(C)CCC3[C@@]2(C)C=C[C@H]1O (stereo partly shown) [deoxyandirobin lactone]
ATP [3]: 0.967

NC1(C(=O)O)CCCC1 [cycloleucine]
ATP [1]: 0.045

C=C1C(=O)O[C@@H]2C[C@@]3(C)CCC[C@H](C)C3=C[C@H]12 [helenine]
ATP [4]: −8.064

O=C(O)c1cc(O)c2c(c1)[C@H]([C@H]1c3cc(C(=O)O)cc(O)c3C(=O)c3c(O[C@@H]4O[C@H](CO)[C@@H](O)[C@H](O)[C@H]4O)cccc31)c1cccc(O[C@@H]3O[C@H](CO)[C@@H](O)[C@H](O)[C@H]3O)c1C2=O [sennoside A]
ATP [4]: −0.358

N=C(N)N.N=C(N)N.O=C(O)O [guanidine carbonate]
ATP [4]: −0.171

Cc1cc(O)c2c(c1O)C(=O)c1c(O)cc(C)c(O)c1C2=O [1,4,5,8-tetrahydroxy-2,6-dimethylanthroquinone, reference compound]
ATP [5]: −0.346
ATP [4]: −0.346

O=C(/C=C/c1ccccc1)c1ccc(O[C@@H]2O[C@H](CO)[C@@H](O)[C@H](O)[C@H]2O)cc1O [2′,4′-dihydroxychalcone 4′-glucoside]
ATP (composite Z-score) (Conc 20 μM): 0.137

methyl benzethonium chloride
ATP: −3.432

3-deoxo-3beta-hydroxymexicanolide 16-enol ether
ATP [3]: −0.075

COc1ccc2c(c1)C1(C)CCC(O)CC1CC2 (stereo not shown)
ATP [4]: 0.068

c1ccc2c(c1)CN1CCCC1=N2 [desoxypeganine]
ATP [4]: 0.956

COc1ccc2c(c1)CC[C@@H]1[C@@H]2CC[C@]2(C)[C@@H](O)CC[C@@H]12 [estradiol methyl ether]
ATP [4]: 0.823

C=C[C@@](C)(O)CC[C@H]1C(=C)C[C@H](O)[C@H]2C(C)(C)CCC[C@]12C [larixol]
ATP (composite Z-score) (Conc 20 μM): 0.051

COc1cc2c(cc1OC)-c1c(oc3c4c(ccc3c1=O)OC(C(C)C)C4)CO2 (stereo not shown) [dehydrodihydrorotenone, reference compound]
ATP [3]: 0.084

CC[N+]1(C)CCCC(OC(=O)C(O)(c2ccccc2)c2ccccc2)C1 (stereo not shown) [pipenzolate]
ATP [6]: 1.043

CC(=O)O[C@H](CC(=O)[O-])C[N+](C)(C)C [acetylcarnitine]
ATP [6]: 0.681

CC(C)c1c(O)ccc2c1CCC1[C@@](C)(C=O)CCC[C@]21C (stereo partly shown) [totaralolal]
ATP [3]: 0.829

COc1ccc(-c2cc(=O)c3c(O)cc(O[C@@H]4O[C@H](CO[C@@H]5O[C@@H](C)[C@H](O)[C@@H](O)[C@H]5O)[C@@H](O)[C@H](O)[C@H]4O)cc3o2)cc1O [diosmin]
ATP [6]: 0.452

CC[N+](CC)(CC)CCOc1cccc(OCC[N+](CC)(CC)CC)c1OCC[N+](CC)(CC)CC [gallamine]
ATP [6]: −0.341

C=CC(C1=CC(=O)C(OC)=CC1=O)c1ccc(OC)cc1 (stereo not shown) [4,4′-dimethoxydalbergione]
ATP [3]: −0.089

COc1cc2c3cc1Oc1c(OC)c(OC)cc4c1[C@@H](Cc1ccc(O)c(c1)Oc1ccc(cc1)C[C@@H]3N(C)CC2)N(C)CC4 [berbamine]
ATP [4]: 0.168

O=C(O)c1cccnc1C(=O)O [quinolinic acid]
ATP [1]: 0.107

CC1(C)CC[C@]2(C(=O)O)CC[C@]3(C)C(=CC[C@@H]4[C@@]5(C)CC[C@H](O)[C@@](C)(CO)[C@@H]5CC[C@]43C)[C@@H]2C1 [hederagenin]
ATP: 0.064

COc1cc(O)c(C(=O)/C=C/c2ccccc2)c(OC)c1 [flavokawain B]
ATP [4]: 0.641

COc1ccc(-c2coc3cc(O)ccc3c2=O)c(OC)c1 [2′-methoxyformonetin]
ATP [3]: 1.998

CC(COc1ccccc1)NC(C)C(O)c1ccc(O)cc1 (stereo not shown) [isoxsuprine]
ATP [4]: −0.160

C=C(C)/C=C1/C=CC(=O)C(C)=C1 [retusoquinone]
ATP [3]: −8.276

CC(C)=CC1C(CO)C1(C)C (stereo not shown) [chrysanthemyl alcohol]
ATP [2]: 0.964

ClC1=C(Cl)C2(Cl)C3C4CC(C5OC45)C3C1(Cl)C2(Cl)Cl (stereo not shown) [endrin]
ATP [1]: 0.305

CC(CN(C)C)CN1c2ccccc2Sc2ccccc21 (stereo not shown) [trimeprazine]
ATP (composite Z-score vs DMSO, Conc 8.92 μM): −0.459
ATP [4]: −3.762

CC(C)[C@@H](C)/C=C/[C@@H](C)[C@H]1CC[C@H]2C3=CC=C4C[C@@H](O)CC[C@]4(C)[C@H]3CC[C@]12C [ergosterol]
ATP [4]: −0.762

COc1c(O)cccc1O [2-methoxyresorcinol]
ATP (composite Z-score) (Conc 20 μM): 0.150

gentamicin sulfate
ATP [4]: −0.234

CC(=O)O[C@H]1CC[C@]2(C)[C@H]3C(=O)C=C4[C@@H]5[C@@H](C)[C@H](C)CC[C@]5(C(=O)O)CC[C@@]4(C)[C@]3(C)CC[C@H]2C1(C)C [11-oxoursolic acid acetate]
ATP [2]: −1.477

Nc1ccc(C(=O)[O-])cc1.[K+] [potassium p-aminobenzoate]
ATP [1]: −0.299

(S)-(−)-atenolol
ATP: 0.476

COC(=O)C[C@H]1C(C)(C)C(=O)[C@@H]2CC3=C(CC[C@]4(C)C3=CC(=O)O[C@H]4c3ccoc3)[C@@]1(C)C2=O [carapin-8 (9)-ene]
ATP (composite Z-score) (Conc 20 μM): 0.562

C[C@@H]([C@H]1OC(C)(C)[C@@H](O)[C@H]1O)[C@@H]1CC[C@]2(C)C3=CC[C@H]4C(C)(C)C(=O)CC[C@]4(C)[C@H]3CC[C@@]12C [odoratone]
ATP [3]: 0.474

C=C1CCC2C(CC2(C)C)C(=C)CCC1=NO (stereo not shown) [5-hydroxyiminoisocaryophyllene]
ATP [3]: 0.874

CC(=O)OCC(COC(C)=O)OC(C)=O [triacetin]
ATP [1]: −0.008

CC(C)=CCc1c2c(c(O)c3c(=O)c(O)c(-c4ccccc4)oc13)C=CC(C)(C)O2 [sericetin]
ATP [2]: −1.140

C[C@]12CCC(=O)C=C1CCc1ccc(O)cc12
ATP [3]: 0.589

polymyxin b sulfate
ATP [1]: 1.157

CC(C)(OC(=O)c1ccccc1)[C@@H]1Cc2cc3ccc(=O)oc3cc2O1 [felamidin]
ATP [4]: 0.238

O=c1cc(-c2ccccc2)oc2cc(O)cc(O)c12 [chrysin]
ATP [6]: 0.097

C[C@@H]1CC[C@H]2[C@@H](C)C(=O)O[C@@H]3O[C@@]4(C)CC[C@@H]1[C@]32OO4 [artemisinin]
ATP [6]: 0.737

C[C@@H]1[C@H]2[C@H](O[C@@H]3O[C@H](CO)[C@@H](O)[C@H](O)[C@H]3O)OC=C(C(=O)O)[C@H]2C[C@@H]1O [loganic acid]
ATP (composite Z-score) (Conc 20 μM): −0.276

CC1(C)C2C[C@@H](O)[C@]3(C)C(CC[C@@]4(C)[C@H](c5ccoc5)OC(=O)C5OC543)[C@@]2(C)C(=O)C[C@H]1O (stereo partly shown) [1-deacetoxy-1-oxo-3,7-dideacetylkhivorin]
ATP (composite Z-score) (Conc 20 μM): −0.222

CC(C)C[C@H](NC(=O)CN)C(=O)N[C@@H](Cc1ccccc1)C(=O)O [glycylleucylphenylalanine] (H-Gly-Leu-Phe-OH)
ATP [4]: 0.418

CCOc1nc2cccc(C(=O)OC(C)OC(=O)OC3CCCCC3)c2n1Cc1ccc(-c2ccccc2-c2nn[nH]n2)cc1 (stereo not shown) [candesartan cilextil]
ATP [4]: 0.721

CC(=O)O[C@@H]1CC2C(C)(CC[C@H](O)C2(C)C)C2CC[C@]3(C)C(=CC(=O)O[C@H]3c3ccoc3)C21C (stereo partly drawn) [3beta-hydroxydeoxodihydrodeoxygedunin]
ATP (composite Z-score) (Conc 20 μM): 0.202

OC[C@H]1O[C@@H](O[C@H]2[C@H](O)[C@@H](O)[C@H](O)O[C@@H]2CO)[C@H](O)[C@@H](O)[C@@H]1O [cellobiose (D[+])]
ATP [2]: 1.049

CC(N/C(=N\C#N)Nc1ccncc1)C(C)(C)C (stereo not shown) [pinacidil]
ATP [4]: −0.566

Cc1c(N(C)CS(=O)(=O)[O-])c(=O)n(-c2ccccc2)n1C.[Na+] [dipyrone]
ATP [6]: 0.582

CC12CCCC(O)(C1)C1CC(C)(C)C1CC2 (stereo not drawn) [beta-caryophyllene alcohol]
ATP [2]: −0.243

CCOC(=O)c1oc2c(OC)c(O)cc(O)c2c(=O)c1-c1cc(OC)c(OC)c(OC)c1
ATP [3]: 0.782

CCN(CC)Cc1cc(Nc2ccnc3cc(Cl)ccc23)ccc1O [amodiaquine]
ATP [1]: −0.270

dihydromundulone [reference compound]
ATP [5]: −0.792
ATP [2]: −0.792

theaflavin monogallate
ATP [2]: 0.164

CC1(C)[C@H]2CC[C@@]1(C)C(=O)C2 [1r-camphor]
ATP [1]: 0.270

NC(=O)c1cc([N+](=O)[O-])cc([N+](=O)[O-])c1 [nitromide]
ATP [1]: 0.548

COc1ccc(-c2c(O)c3c(OC)c4c(cc3oc2=O)OC(C)(C)C=C4)cc1 [robustic acid, reference compound]
ATP (composite Z-score) (Conc 20 μM): 0.257

O=C(O)c1cc(O)c2c(c1)C(=O)c1cc(O)cc(O)c1C2=O [emodic acid]
ATP (composite Z-score) (Conc 20 μM): −0.639

CC[C@H]1OC(=O)[C@H](C)[C@@H](O[C@H]2C[C@@](C)(OC)[C@@H](O)[C@H](C)O2)[C@H](C)[C@@H](O[C@@H]2O[C@H](C)C[C@H](N(C)C)[C@H]2O)[C@](C)(OC)C[C@@H](C)C(=O)[C@H](C)[C@@H](O)[C@]1(C)O [clarithromycin]
ATP [4]: −0.911

O=c1c(-c2cc(O)c(O)c(O)c2)coc2cc(O)c(O)c(O)c12 [irigenol]
ATP [4]: 0.611

COc1cc2c(cc1OC)[C@@H]1C(=O)c3ccc(OC)c(CC=C(C)C)c3O[C@@H]1CO2 [rotenonic acid, methyl ether]
ATP [3]: −4.969

beta-sitosterol
ATP [4]: −0.419

COc1c2occc2cc2ccc(=O)oc12 [methoxsalen]
ATP [1]: 0.776

From US20090143279A1 (priority 2007, published 2009)
